Where “and” joins values, the source holds several entries; their conditions need not be identical. Equal entries are not always repeated. Structures can show the parent of a compound that is named as a salt. Over roughly 1,900 compounds, “cell viability of compound + 1 nM pemigatinib relative to pemigatinib-only (DMSO) wells” has its median near 0.95; the lowest 2% begin near 0.22. The list shows a part of the results.
Each compound was assayed on PDC-DUC18828 (assay: cell viability of compound + 1 nM pemigatinib relative to pemigatinib-only (DMSO) wells (fraction); PDC-DUC18828 is a patient-derived cholangiocarcinoma cell line; higher = less growth inhibition). Conditions: first compound 1 µM; pemigatinib concentration 1 nM; 72 h.
Method: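 Selleck Bioactive library screen in the patient-derived FGFR2 fusion-positive ICC cell line PDC-DUC18828 (500 cells/well). Each compound was tested at 1 uM with 1 nM pemigatinib, in triplicate, for 72 h. Viability was read by CellTiter-Glo and normalised to plate DMSO controls. Value is the paper's averaged normalised viability.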
For `Cc1cccc(C)c1OCC(=O)N[C@@H](Cc1ccccc1)[C@@H](O)C[C@H](Cc1ccccc1)NC(=O)[C@H](C(C)C)N1CCCNC1=O` [Lopinavir] + CCN1C(=O)N(c2c(F)c(OC)cc(OC)c2F)Cc2cnc3[nH]c(CN4CCOCC4)cc3c21 [pemigatinib], the cell viability was 1.02. For `O=C1O[C@H]([C@@H](O)CO)C(O)=C1O` [Vitamin C] + CCN1C(=O)N(c2c(F)c(OC)cc(OC)c2F)Cc2cnc3[nH]c(CN4CCOCC4)cc3c21 [pemigatinib], the cell viability was 0.918. Compound `Clc1ccc(C(c2ccccc2Cl)C(Cl)Cl)cc1` (stereo not drawn) [Mitotane] + CCN1C(=O)N(c2c(F)c(OC)cc(OC)c2F)Cc2cnc3[nH]c(CN4CCOCC4)cc3c21 [pemigatinib] has a cell viability of 0.948. For `O=C(O)c1ccccc1Nc1cccc(C(F)(F)F)c1` [Flufenamic acid] + CCN1C(=O)N(c2c(F)c(OC)cc(OC)c2F)Cc2cnc3[nH]c(CN4CCOCC4)cc3c21 [pemigatinib], the cell viability was 0.985. For `COc1cc(CCc2cc(NC(=O)c3ccc(N4CC(C)NC(C)C4)cc3)n[nH]2)cc(OC)c1` (stereo not drawn) + CCN1C(=O)N(c2c(F)c(OC)cc(OC)c2F)Cc2cnc3[nH]c(CN4CCOCC4)cc3c21 [pemigatinib], the cell viability was 0.875. `Nc1ccc(C(=O)O)c(O)c1` [Sodium 4-Aminosalicylate] + CCN1C(=O)N(c2c(F)c(OC)cc(OC)c2F)Cc2cnc3[nH]c(CN4CCOCC4)cc3c21 [pemigatinib] gave a cell viability of 0.961. For `CCCc1cc2c(N3CCN(C4=NCC(C)(C)S4)CC3)ncnc2s1` [MI-2 (Menin-MLL Inhibitor)] + CCN1C(=O)N(c2c(F)c(OC)cc(OC)c2F)Cc2cnc3[nH]c(CN4CCOCC4)cc3c21 [pemigatinib], the cell viability was 0.902. `CNCc1ccc(C)c(NC(=O)c2ccc(Nc3nc(-c4ccccc4)c4ccccc4n3)cc2)c1` + CCN1C(=O)N(c2c(F)c(OC)cc(OC)c2F)Cc2cnc3[nH]c(CN4CCOCC4)cc3c21 [pemigatinib] gave a cell viability of 0.913. `CCCCN1CCCC[C@H]1C(=O)Nc1c(C)cccc1C` [Levobupivacaine HCl] + CCN1C(=O)N(c2c(F)c(OC)cc(OC)c2F)Cc2cnc3[nH]c(CN4CCOCC4)cc3c21 [pemigatinib] was tested, and the cell viability was 0.924. `O=c1cc(N2CCOCC2)oc2c(-c3ccccc3)cccc12` + CCN1C(=O)N(c2c(F)c(OC)cc(OC)c2F)Cc2cnc3[nH]c(CN4CCOCC4)cc3c21 [pemigatinib] gave a cell viability of 0.922. Compound `COc1cccc(-c2cc(F)ccc2C2Cc3nc(N)nc(C)c3C(=O)N2)n1` (stereo not drawn) + CCN1C(=O)N(c2c(F)c(OC)cc(OC)c2F)Cc2cnc3[nH]c(CN4CCOCC4)cc3c21 [pemigatinib] has a cell viability of 0.297. In the case of `Cc1ccc(Sc2cncc3sc(C(N)=O)cc23)cc1` + CCN1C(=O)N(c2c(F)c(OC)cc(OC)c2F)Cc2cnc3[nH]c(CN4CCOCC4)cc3c21 [pemigatinib], the cell viability is reported as 0.836. `Cc1c(C(=O)Nc2ccc(N3C[C@@H](C)O[C@@H](C)C3)nc2)cccc1-c1ccc(OC(F)(F)F)cc1` [LDE225 (NVP-LDE225,Erismodegib)] + CCN1C(=O)N(c2c(F)c(OC)cc(OC)c2F)Cc2cnc3[nH]c(CN4CCOCC4)cc3c21 [pemigatinib] gave a cell viability of 1.01. For `Nc1cc(C(F)(F)F)c(-c2cc(N3CCOCC3)nc(N3CCOCC3)n2)cn1` [BKM120 (NVP-BKM120, Buparlisib)] + CCN1C(=O)N(c2c(F)c(OC)cc(OC)c2F)Cc2cnc3[nH]c(CN4CCOCC4)cc3c21 [pemigatinib], the cell viability was 0.546. Compound `Cc1cnc(NC(=O)Nc2cc(Br)c(C)cc2OC[C@@H]2CNCCO2)cn1` + CCN1C(=O)N(c2c(F)c(OC)cc(OC)c2F)Cc2cnc3[nH]c(CN4CCOCC4)cc3c21 [pemigatinib] has a cell viability of 0.977. Work on `OCC(CO)N[C@H]1C[C@](O)(CO)[C@@H](O)[C@H](O)[C@H]1O` [Voglibose] + CCN1C(=O)N(c2c(F)c(OC)cc(OC)c2F)Cc2cnc3[nH]c(CN4CCOCC4)cc3c21 [pemigatinib] yielded a cell viability of 1.03. Work on `COc1cc(Nc2ncc3c(n2)-c2ccc(Cl)cc2C(c2c(F)cccc2OC)=NC3)ccc1C(=O)O` [Alisertib (MLN8237)] + CCN1C(=O)N(c2c(F)c(OC)cc(OC)c2F)Cc2cnc3[nH]c(CN4CCOCC4)cc3c21 [pemigatinib] yielded a cell viability of 0.621. `CCCCC(=O)N(Cc1ccc(-c2ccccc2-c2nnn[nH]2)cc1)[C@H](C(=O)O)C(C)C` [Valsartan] + CCN1C(=O)N(c2c(F)c(OC)cc(OC)c2F)Cc2cnc3[nH]c(CN4CCOCC4)cc3c21 [pemigatinib] showed a cell viability of 0.968. For `Cc1ccc(Nc2nccc(N(C)c3ccc4c(C)n(C)nc4c3)n2)cc1S(N)(=O)=O` [Pazopanib] + CCN1C(=O)N(c2c(F)c(OC)cc(OC)c2F)Cc2cnc3[nH]c(CN4CCOCC4)cc3c21 [pemigatinib], the cell viability was 0.861. With `CCc1ccc(/C=C2/SC(=S)NC2=O)cc1` + CCN1C(=O)N(c2c(F)c(OC)cc(OC)c2F)Cc2cnc3[nH]c(CN4CCOCC4)cc3c21 [pemigatinib] the cell viability was 1.01. In the case of `O=C1c2c(O)ccc(O)c2C(=O)c2c(NCCNCCO)ccc(NCCNCCO)c21` [Mitoxantrone HCl] + CCN1C(=O)N(c2c(F)c(OC)cc(OC)c2F)Cc2cnc3[nH]c(CN4CCOCC4)cc3c21 [pemigatinib], the cell viability is reported as 0.196. Compound `O=C1c2c(O)ccc(O)c2C(=O)c2c(NCCNCCO)ccc(NCCNCCO)c21` [Mitoxantrone] + CCN1C(=O)N(c2c(F)c(OC)cc(OC)c2F)Cc2cnc3[nH]c(CN4CCOCC4)cc3c21 [pemigatinib] has a cell viability of 0.241. `CCOC(=O)c1ccc(NC2CCCCC2)c(N)c1` [Ferrostatin-1 (Fer-1)] + CCN1C(=O)N(c2c(F)c(OC)cc(OC)c2F)Cc2cnc3[nH]c(CN4CCOCC4)cc3c21 [pemigatinib] gave a cell viability of 1. `CC1(C)CC[C@]2(NC(=O)C(C)(F)F)CC[C@]3(C)[C@H](C(=O)C=C4[C@@]5(C)C=C(C#N)C(=O)C(C)(C)[C@@H]5CC[C@]43C)[C@@H]2C1` [Omaveloxolone (RTA-408)] + CCN1C(=O)N(c2c(F)c(OC)cc(OC)c2F)Cc2cnc3[nH]c(CN4CCOCC4)cc3c21 [pemigatinib] gave a cell viability of 0.042. Compound `CN1CCN(Cc2ccc(-c3cnc4[nH]cc(-c5ccc6[nH]ccc6c5)c4c3)cc2)CC1` + CCN1C(=O)N(c2c(F)c(OC)cc(OC)c2F)Cc2cnc3[nH]c(CN4CCOCC4)cc3c21 [pemigatinib] has a cell viability of 0.997. For `CCOC(=O)C1=C(C)NC(C)=C(C(=O)OC)C1c1cccc(Cl)c1Cl` (stereo not drawn) [Felodipine] + CCN1C(=O)N(c2c(F)c(OC)cc(OC)c2F)Cc2cnc3[nH]c(CN4CCOCC4)cc3c21 [pemigatinib], the cell viability was 1.02. In the case of `COC(=O)/C=C/C(=O)OC` [Dimethyl Fumarate] + CCN1C(=O)N(c2c(F)c(OC)cc(OC)c2F)Cc2cnc3[nH]c(CN4CCOCC4)cc3c21 [pemigatinib], the cell viability is reported as 0.982. With `CC(C)c1cc(C(C)C)c(CC(=O)NS(=O)(=O)Oc2c(C(C)C)cccc2C(C)C)c(C(C)C)c1` [Avasimibe] + CCN1C(=O)N(c2c(F)c(OC)cc(OC)c2F)Cc2cnc3[nH]c(CN4CCOCC4)cc3c21 [pemigatinib] the cell viability was 0.96. With `O=C(NNc1nc2cc(F)ccc2n2cccc12)c1cnccn1` + CCN1C(=O)N(c2c(F)c(OC)cc(OC)c2F)Cc2cnc3[nH]c(CN4CCOCC4)cc3c21 [pemigatinib] the cell viability was 0.0465. Compound `O=C(NC(Cc1cc(=O)[nH]c2ccccc12)C(=O)O)c1ccc(Cl)cc1` (stereo not drawn) [Rebamipide] + CCN1C(=O)N(c2c(F)c(OC)cc(OC)c2F)Cc2cnc3[nH]c(CN4CCOCC4)cc3c21 [pemigatinib] has a cell viability of 1.03. With `COc1ccc2[nH]cc(/C=C3\C(=O)Nc4ccc(NC(=O)CCN5CCCCC5)cc43)c2c1` + CCN1C(=O)N(c2c(F)c(OC)cc(OC)c2F)Cc2cnc3[nH]c(CN4CCOCC4)cc3c21 [pemigatinib] the cell viability was 0.943. `Clc1cccc(CN=C2Nc3ccccc3NC23CCNCC3)c1` [Liproxstatin-1] + CCN1C(=O)N(c2c(F)c(OC)cc(OC)c2F)Cc2cnc3[nH]c(CN4CCOCC4)cc3c21 [pemigatinib] showed a cell viability of 0.903. In the case of `CC(CNC(=O)c1cccnc1)NC(=O)c1cccnc1` (stereo not drawn) [Nicaraven] + CCN1C(=O)N(c2c(F)c(OC)cc(OC)c2F)Cc2cnc3[nH]c(CN4CCOCC4)cc3c21 [pemigatinib], the cell viability is reported as 0.974. Compound `O=C(Nc1ccccc1)N1CCN(c2nc(-c3ccccc3)ns2)CC1` + CCN1C(=O)N(c2c(F)c(OC)cc(OC)c2F)Cc2cnc3[nH]c(CN4CCOCC4)cc3c21 [pemigatinib] has a cell viability of 0.934. `CN(c1ncccc1CNc1nc(Nc2ccc3c(c2)CC(=O)N3)ncc1C(F)(F)F)S(C)(=O)=O` + CCN1C(=O)N(c2c(F)c(OC)cc(OC)c2F)Cc2cnc3[nH]c(CN4CCOCC4)cc3c21 [pemigatinib] was tested, and the cell viability was 0.954 and 0.871 and 0.925. Compound `CCc1ccc(OCc2ccccc2C(=O)Nc2ccc3nc(C)cc(N)c3c2)cc1` + CCN1C(=O)N(c2c(F)c(OC)cc(OC)c2F)Cc2cnc3[nH]c(CN4CCOCC4)cc3c21 [pemigatinib] has a cell viability of 0.995. Compound `Cn1nc(C(C)(C)C)cc1C(=O)N[C@@H](Cc1cccc(Cl)c1)C(=O)NCC#N` [Cathepsin Inhibitor 1] + CCN1C(=O)N(c2c(F)c(OC)cc(OC)c2F)Cc2cnc3[nH]c(CN4CCOCC4)cc3c21 [pemigatinib] has a cell viability of 0.907. `CN(C)CCc1c[nH]c2ccc(CS(=O)(=O)N3CCCC3)cc12` [Almotriptan Malate] + CCN1C(=O)N(c2c(F)c(OC)cc(OC)c2F)Cc2cnc3[nH]c(CN4CCOCC4)cc3c21 [pemigatinib] gave a cell viability of 0.983.
